Measurements taken from PubChem BioAssay AID322 (DTP/NCI, 2004).
Inconclusive results and toxic doses are left out. Not every entry of the source has a single result; some have several. The list is limited to them. An entry can have further records. The values listed for one entry differ, and nothing given here explains why; dose, time, organism, isomer or construct need not be as stated for each record.

Test system: CD2F1 mice, P388/ADR leukemia ip, median survival T/C
Assay: NCI In Vivo Anticancer Drug Screen. Data for tumor model P388 Leukemia resistant to Adriamycin; NSC 123127, Developed at Scr 08 (intraperitoneal) in CD2F1 (CDF1) mice
Conditions: endpoint: median survival time; dose: 6.25 mg/kg/injection; schedule: Q01DX005 (ip); vehicle: saline with Tween-80; higher = longer survival
Protocol: The antitumor activity of compounds was measured in mice bearing transplantable tumors. Survival or tumor size were measured and the results are expressed as the measurement made in the treated group (T) divided by the measurement made in the vehicle treated control group (C). The tumor model used in this assay is P388 Leukemia resistant to Adriamycin; NSC 123127, Developed at Scr 08 (intraperitoneal) in CD2F1 (CDF1) mice

CO[C@@]12[C@@H]3N[C@@H]3CN1C1=C(C(=O)C(N3CCCC3)=C(C)C1=O)[C@@H]2COC(N)=O
T/C: 122 % of control and 165 % of control
